# Laboratory results from the supplement of paper PMC8728848.
# This is one part of the list.
# What was measured:
# Assay in all cases: glycan array binding signal (z-score within array); higher = stronger binding
# Conditions in all cases: glycan notation: IUPAC condensed, linker removed
# [1] = biological target: Gal3S(b1-3)[Fuc(a1-4)]GlcNAc
# Summary of the method: (§1)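 Columns mapping to the same glycan were averaged after glycan names were converted to IUPAC-condensed notation. The data come from 3228 arrays in the Consortium for Functional Glycomics database, limited to those with an available protein sequence. Binding is reported as a within-array Z-score averaged across arrays of one protein sequence and across linkers.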
# Gal3S(b1-4)Glc = biological target: Gal3S(b1-4)Glc
# Summary of the method: as §1
# Gal3S(b1-4)Glc6S = biological target: Gal3S(b1-4)Glc6S
# Summary of the method: as §1
# Gal3S(b1-4)GlcNAc = biological target: Gal3S(b1-4)GlcNAc
# Summary of the method: as §1
# [2] = biological target: Gal3S(b1-4)[Fuc(a1-3)]Glc6S
# Summary of the method: as §1
# [3] = biological target: Gal3S(b1-4)[Fuc(a1-3)]GlcNAc
# Summary of the method: as §1
# [4] = biological target: Gal3S(b1-4)[Fuc(a1-3)]GlcNAc6S
# Summary of the method: as §1
# Gal3S4S(b1-4)GlcNAc = biological target: Gal3S4S(b1-4)GlcNAc
# Summary of the method: as §1
# Gal3S6S(b1-4)GlcNAc = biological target: Gal3S6S(b1-4)GlcNAc
# Summary of the method: as §1
# Gal3S6S(b1-4)GlcNAc6S = biological target: Gal3S6S(b1-4)GlcNAc6S
# Summary of the method: as §1
# Gal4S(b1-4)GlcNAc = biological target: Gal4S(b1-4)GlcNAc
# Summary of the method: as §1
# Gal4S6S(b1-4)GlcNAc = biological target: Gal4S6S(b1-4)GlcNAc
# Summary of the method: as §1
# Gal6P(b1-4)GlcNAc = biological target: Gal6P(b1-4)GlcNAc
# Summary of the method: as §1
# Gal6S(b1-3)GlcNAc = biological target: Gal6S(b1-3)GlcNAc
# Summary of the method: as §1
# Gal6S(b1-3)GlcNAc6S = biological target: Gal6S(b1-3)GlcNAc6S
# Summary of the method: as §1
# Gal6S(b1-4)Glc = biological target: Gal6S(b1-4)Glc
# Summary of the method: as §1
# Gal6S(b1-4)Glc6S = biological target: Gal6S(b1-4)Glc6S
# Summary of the method: as §1
# Gal6S(b1-4)GlcNAc = biological target: Gal6S(b1-4)GlcNAc
# Summary of the method: as §1
# Gal6S(b1-4)GlcNAc6S = biological target: Gal6S(b1-4)GlcNAc6S
# Summary of the method: as §1
# GalNAc(a1-3)Gal = biological target: GalNAc(a1-3)Gal
# Summary of the method: as §1
# GalNAc(a1-3)GalNAc = biological target: GalNAc(a1-3)GalNAc
# Summary of the method: as §1
# [5] = biological target: GalNAc(a1-3)GalNAc(b1-3)Gal(a1-4)Gal(b1-4)Glc
# Summary of the method: as §1
# [6] = biological target: GalNAc(a1-3)GalNAc(b1-3)Gal(a1-4)Gal(b1-4)GlcNAc
# Summary of the method: as §1
# GalNAc(b1-3)Gal = biological target: GalNAc(b1-3)Gal
# Summary of the method: as §1
# [7] = biological target: GalNAc(b1-3)Gal(a1-4)Gal(b1-4)GlcNAc
# Summary of the method: as §1
# [8] = biological target: GalNAc(b1-3)Gal(a1-4)Gal(b1-4)GlcNAc(b1-3)Gal(b1-4)Glc
# Summary of the method: as §1
# [9] = biological target: GalNAc(b1-3)Gal(a1-6)Gal(b1-4)Glc
# Summary of the method: as §1
# GalNAc(b1-3)GalNAc = biological target: GalNAc(b1-3)GalNAc
# Summary of the method: as §1
# GalNAc(b1-3)GlcNAc = biological target: GalNAc(b1-3)GlcNAc
# Summary of the method: as §1
# GalNAc(b1-4)Gal(b1-4)Glc = biological target: GalNAc(b1-4)Gal(b1-4)Glc
# Summary of the method: as §1
# GalNAc(b1-4)GlcNAc = biological target: GalNAc(b1-4)GlcNAc
# Summary of the method: as §1
# [10] = biological target: GalNAc(b1-4)GlcNAc(b1-2)Man
# Summary of the method: as §1
# [11] = biological target: GalNAc(b1-4)GlcNAc(b1-2)Man(a1-3)[GalNAc(b1-4)GlcNAc(b1-2)Man(a1-6)]Man(b1-4)GlcNAc(b1-4)GlcNAc
# Summary of the method: as §1
# [12] = biological target: GalNAc(b1-4)GlcNAc(b1-3)GalNAc(b1-4)GlcNAc
# Summary of the method: as §1
# GalNAc(b1-4)GlcNAc6S = biological target: GalNAc(b1-4)GlcNAc6S
# Summary of the method: as §1
# GalNAc(b1-6)GalNAc = biological target: GalNAc(b1-6)GalNAc
# Summary of the method: as §1
# GalNAc3S(b1-4)GlcNAc = biological target: GalNAc3S(b1-4)GlcNAc
# Summary of the method: as §1
# GalNAc3S(b1-4)GlcNAc3S = biological target: GalNAc3S(b1-4)GlcNAc3S
# Summary of the method: as §1
# [13] = biological target: GalNAc3S(b1-4)[Fuc(a1-3)]GlcNAc
# Summary of the method: as §1
# GalNAc4S6S(b1-4)GlcNAc = biological target: GalNAc4S6S(b1-4)GlcNAc
# Summary of the method: as §1
# GalNAc6S(b1-4)GlcNAc = biological target: GalNAc6S(b1-4)GlcNAc
# Summary of the method: as §1
# Glc(a1-4)Glc = biological target: Glc(a1-4)Glc
# Summary of the method: as §1
# [14] = biological target: Glc(a1-4)Glc(a1-4)Glc(a1-4)Glc
# Summary of the method: as §1
# Glc(a1-6)Glc(a1-6)Glc = biological target: Glc(a1-6)Glc(a1-6)Glc
# Summary of the method: as §1
# [15] = biological target: Glc(a1-6)Glc(a1-6)Glc(a1-6)Glc
# Summary of the method: as §1
binder,measurement,setting,value
"Epa9 (Candida glabrata), CAGL0A01386g (protein) MGSSHHHHHHSSGLVPRGSHMDITPFAHYPRPEGCSSPPNAVSVGLHMDLYNYPYLYVKNPRTGFTNDTDSDADGETDGDSAGGIEGRAGQCWNPEYQDPNFPRYGYKKYGSFGSSDHVNGKISWDHNEFKEGCKPIMARLPTAYNYPAKITFSNFTMVLSGYFKPKSTGLYKFEIHADDFILFNFGSKNAFECCNREESIDNFGPYVAYAMWPNEADQELEVYLFEDSYYPIRLFYNNRDYHSKFMVGFYPPNTEEITYDFDGYLYMLDDTGNECKDSIRYKTVCDD",glycan array binding signal (z-score),[1],-0.442
same,glycan array binding signal (z-score),Gal3S(b1-4)Glc,-0.458
same,glycan array binding signal (z-score),Gal3S(b1-4)Glc6S,-0.471
same,glycan array binding signal (z-score),Gal3S(b1-4)GlcNAc,-0.503
same,glycan array binding signal (z-score),[2],-0.318
same,glycan array binding signal (z-score),[3],-0.495
same,glycan array binding signal (z-score),[4],-0.517
same,glycan array binding signal (z-score),Gal3S4S(b1-4)GlcNAc,-0.487
same,glycan array binding signal (z-score),Gal3S6S(b1-4)GlcNAc,-0.464
same,glycan array binding signal (z-score),Gal3S6S(b1-4)GlcNAc6S,-0.464
same,glycan array binding signal (z-score),Gal4S(b1-4)GlcNAc,-0.473
same,glycan array binding signal (z-score),Gal4S6S(b1-4)GlcNAc,-0.491
same,glycan array binding signal (z-score),Gal6P(b1-4)GlcNAc,-0.494
same,glycan array binding signal (z-score),Gal6S(b1-3)GlcNAc,-0.361
same,glycan array binding signal (z-score),Gal6S(b1-3)GlcNAc6S,-0.247
same,glycan array binding signal (z-score),Gal6S(b1-4)Glc,0.28
same,glycan array binding signal (z-score),Gal6S(b1-4)Glc6S,1.07
same,glycan array binding signal (z-score),Gal6S(b1-4)GlcNAc,0.445
same,glycan array binding signal (z-score),Gal6S(b1-4)GlcNAc6S,0.589
same,glycan array binding signal (z-score),GalNAc(a1-3)Gal,-0.486
same,glycan array binding signal (z-score),GalNAc(a1-3)GalNAc,-0.465
same,glycan array binding signal (z-score),[5],-0.468
same,glycan array binding signal (z-score),[6],-0.455
same,glycan array binding signal (z-score),GalNAc(b1-3)Gal,-0.456
same,glycan array binding signal (z-score),[7],-0.367
same,glycan array binding signal (z-score),[8],-0.249
same,glycan array binding signal (z-score),[9],-0.468
same,glycan array binding signal (z-score),GalNAc(b1-3)GalNAc,-0.471
same,glycan array binding signal (z-score),GalNAc(b1-3)GlcNAc,-0.486
same,glycan array binding signal (z-score),GalNAc(b1-4)Gal(b1-4)Glc,-0.444
same,glycan array binding signal (z-score),GalNAc(b1-4)GlcNAc,-0.449
same,glycan array binding signal (z-score),[10],-0.396
same,glycan array binding signal (z-score),[11],-0.408
same,glycan array binding signal (z-score),[12],-0.472
same,glycan array binding signal (z-score),GalNAc(b1-4)GlcNAc6S,-0.469
same,glycan array binding signal (z-score),GalNAc(b1-6)GalNAc,-0.474
same,glycan array binding signal (z-score),GalNAc3S(b1-4)GlcNAc,-0.457
same,glycan array binding signal (z-score),GalNAc3S(b1-4)GlcNAc3S,-0.441
same,glycan array binding signal (z-score),[13],-0.453
same,glycan array binding signal (z-score),GalNAc4S6S(b1-4)GlcNAc,-0.45
same,glycan array binding signal (z-score),GalNAc6S(b1-4)GlcNAc,-0.479
same,glycan array binding signal (z-score),Glc(a1-4)Glc,-0.47
same,glycan array binding signal (z-score),[14],-0.452
same,glycan array binding signal (z-score),Glc(a1-6)Glc(a1-6)Glc,-0.471
same,glycan array binding signal (z-score),[15],-0.458
